The whole screen tested about 420,000 compounds, of which about 64,000 (15%) were called active. This list was built around the results that the source calls inconclusive (neither active nor inactive); the mix of calls is not that of the screen. Calls follow the shape of the dose curve; as a rule, active = well fitted inhibition curve with a large enough effect; inconclusive = small, poorly fitted or top-dose-only effect; inactive = flat fitted curve, though single readings scatter. No potency is given beside an inconclusive call; the fits are too rough.
Experiment: qHTS for Inhibitors of human tyrosyl-DNA phosphodiesterase 1 (TDP1): qHTS in cells in absence of CPT; also: nearly all actives have a fitted effect of over 55% in size
Settings: DT40 Tdp1-/- hTDP1 cells, no CPT, ATP luminescence, 48 h; activity change, negative = growth inhibition: at 46.2 µM (top of the series)
Summary of the method: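 Cells were dispensed at 400 per well, compounds added by pin tool, plates incubated ≥48 hr at 37 °C, then CellTiter-Glo added for 30 min at room temperature before luminescence reading. Line: DT40 Tdp1-/- complemented with hTDP1; camptothecin omitted.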
% is scaled to controls: 0 for no effect and ±100 for the full control effect; potency is read from the fitted curve at half-maximal effect; tags tell the direction and shape of the fitted curve.

Row | Structure (SMILES) | Potency | activity change, negative = growth inhibition
1 | COc1ccc(-c2sc3ccccc3c2C#CC2(O)CCCCC2)cc1 | inconclusive [inhibitor, single point] | 
2 | Cc1ccc(N2CCN(C(=O)c3nn(C)c4c3CS(=O)(=O)c3ccccc3-4)CC2C)cc1 (stereo unspecified) | inconclusive [inhibitor, single point] | 
3 | CC(C)C1N(C(=O)N2CCOCC2)CCN1S(=O)(=O)c1ccccc1 (stereo unspecified) | inactive | 
4 | CCOc1ccc(-c2ccc(NS(=O)(=O)c3cc(C)ccc3OC)cc2)nn1 | active: 23.1 µM | 
5 | CC1(C)CC(NC(=O)c2ccc(-c3ccc([N+](=O)[O-])cc3)o2)CC(C)(C)N1 | inconclusive [inhibitor, partial curve, poor fit] | 
6 | Cc1ccc(OCC(=O)NCCc2c[nH]c3ccccc23)cc1 | inactive | 
7 | CC(C)N(C(=O)c1ccccc1-c1ccccc1)C(C)C | active: 18.4 µM | 
8 | O=C(COC(=O)c1ccccn1)Nc1cccc2ccccc12 | inactive | 
9 | COc1ccc(C(=O)CSc2nc3cccnc3n2C)cc1 | inconclusive [inhibitor, single point] | 
10 | CSc1nc(N)c2c3c(sc2n1)COC(C(C)C)C3 (stereo unspecified) | inactive | 
11 | COc1ccccc1CNC(=O)[C@H](C)NC(=O)C1CCN(C(=O)[C@@H]2CCCN2C(=O)OC(C)(C)C)CC1 | inactive | 
12 | C[C@H](NS(=O)(=O)c1ccc(Cl)cc1)C(=O)OCC(=O)NCCc1ccc(S(N)(=O)=O)cc1 | inactive | 
13 | CC(C)[C@H](NC(=O)N1CCn2c1nc1ccccc12)C(=O)NCCc1ccccc1 | inconclusive [inhibitor, single point] | 
14 | OCCCNc1c2ccccc2nc2ccccc12 | active: 9.2 µM | 
15 | c1ccc(-c2ccc(CNC3CC3)cc2)cc1 | inactive | 
16 | Cc1nn(-c2ccccc2)c(Cl)c1/C=N/NC(=O)c1ccnn1C | inconclusive [inhibitor, single point] | 
17 | C[C@@H]1CN([C@@H](C)CO)C(=O)c2cc(NS(C)(=O)=O)ccc2O[C@H]1CN(C)Cc1ccc(Oc2ccccc2)cc1 | inconclusive [inhibitor, partial curve, poor fit] | 
18 | O=C(CCn1c(=O)c2cccn2c2ccc(F)cc21)NCc1ccccc1F | inconclusive [inhibitor, single point] | 
19 | COc1ccc(C2C3=C(CC(C)(C)CC3=O)Oc3ncn(Cc4ccco4)c(=N)c32)cc1 (stereo unspecified) | inactive | 
20 | Cc1cccc(NC(=O)Cn2c(=O)n(Cc3ccc(C(=O)NCc4ccc5c(c4)OCO5)cc3)c(=O)c3ccccc32)c1 |  | inconclusive: -20.9% [inhibitor]
21 | COc1ccc(-c2nc3c(Cl)cc(C(F)(F)F)cn3c2Cc2cccc(Cl)c2)cc1OC | inconclusive [inhibitor, single point] | 
22 | O=C(CNC(=O)c1ccco1)N/N=C/c1cccs1 | inactive | 
23 | COc1ccc(Br)cc1/C=N/N1CCN(Cc2ccccc2)CC1 | inconclusive [inhibitor, partial curve] | 

Row | Structure (SMILES) | Potency | activity change, negative = growth inhibition
24 | O=C(c1cc(=O)[nH]c2ccccc12)N(Cc1nnc(-c2ccccc2Cl)o1)C1CC1 | inconclusive [inhibitor, single point] | 
25 | OC(CC#CCN1CCCC1)(c1ccccc1)c1ccccc1 | inconclusive [inhibitor, single point] | 
26 | C=C[C@@H]1c2cc(C)ccc2N(S(=O)(=O)c2ccc(C)cc2)[C@H](c2ccccc2)C1(C#N)C#N | active: 10 µM | 
27 | COc1ccc(NC(=O)Cn2c(=O)oc3cc(S(=O)(=O)NC(C)C)ccc32)cc1OC |  | inconclusive: -31.4% [inhibitor]
28 | CCOc1ccc(C(=O)c2cn(CC(=O)Nc3cc(OC)cc(OC)c3)c3ccc(F)cc3c2=O)cc1 | active: 20.6 µM | 
29 | CCOC(=O)CN1C(=O)S/C(=C/c2ccc(N3CCCCC3)o2)C1=O | inactive | 
30 | COc1ccc(C(=O)N2CCC3(CC2)CN(C(=O)Nc2cccc(C#N)c2)C3)cc1 | inconclusive [inhibitor, single point] | 
31 | COc1ccc(-c2c(-c3cc(OC)cc(OC)c3)n(C)c3ccc(-c4ccc(OC)c(F)c4)cc23)cc1 | inconclusive [inhibitor, single point] | 
32 | CCOC(=O)N1CCN(S(=O)(=O)N2CCCC(C(=O)NCCCN3CC(C)CC(C)C3)C2)CC1 (stereo unspecified) | inactive | 
33 | Clc1cc(NCc2ccccc2)ncn1 | inconclusive [inhibitor, partial curve] | 
34 | CNc1nc(SCc2ccccc2Cl)nc2c1CCCC2 | inconclusive [inhibitor, single point] | 
35 | O=C(NC1=CC(=O)c2ccccc2C1=O)c1ccccc1 | active: 1.16 µM | 
36 | Cc1ccc(C(=O)NCc2nnc(SCC(=O)Nc3sc4c(c3C#N)CCCC4)n2C)cc1 | inconclusive [inhibitor, single point] | 
37 | O=C(c1ccc2c3n(nc2c1)-c1ccc(Cl)cc1CO3)N1CCOCC1 | inconclusive [inhibitor, partial curve] | 
38 | COc1ccc(S(=O)(=O)N(Cc2nc(-c3cccc(C)c3)no2)C2CCCCC2)cc1 | inconclusive [inhibitor, single point] | 
39 | Cc1ccccc1Cn1c(SCc2ccc(C(=O)NCc3cccs3)cc2)nc2ccncc21 | active: 18.4 µM | 
40 | CSc1ncccc1C(=O)Nc1nccs1 | inactive | 
41 | O=C(NCC12CC3CC(CC(C3)C1)C2)c1cc2n(n1)C(C(F)(F)F)CC(c1ccco1)N2 (stereo unspecified) | active: 14.6 µM | 
42 | Cc1cccc(OCc2nnc(SCC(=O)Nc3ccc(C)cc3C)o2)c1 | inconclusive [inhibitor, single point] | 
43 | COc1ccc(NC(=O)NC2(C(=O)N3CCCCCC3)CCCCC2)cc1 | inconclusive [inhibitor, single point] | 
44 | COc1cc(-c2nnc(SCC(=O)N3CCCC3)o2)cc(OC)c1OC | inactive | 
45 | c1ccc2c(Oc3ccc4c(c3)OCO4)nncc2c1 | inconclusive [inhibitor, partial curve] | 
46 | Cc1noc(C)c1C(=O)Nc1sc(C)c(-c2ccccc2)c1C#N | inconclusive [inhibitor, single point] | 
